Data as given in PubChem BioAssay AID1768 (National Center for Advancing Translational Sciences (NCATS), 2009).
About 620 (0.23%) of roughly 270,000 compounds were called active. The inconclusive results got no clear call from the source; some entries with a clear call stand among them for comparison. Calls follow the shape of the dose curve; as a rule, active = well fitted inhibition curve with a large enough effect in the polarisation, with a control signal flat (not every such curve was filed as active); inconclusive = small, poorly fitted or top-dose-only effect, or effect the other way, or a change in a side signal; inactive = no such curve, though single readings can be large or run the other way; the % refers to the polarisation. Potencies of inconclusive entries are doubtful fits and often do not repeat. “Side channel” marks fits to a control or component signal instead of the main read-out.
Potency is read from the fitted curve at half-maximal effect; tags tell the direction and shape of the fitted curve or compound fluorescence and quenching.

The molecules below were run against Menin (Homo sapiens) (UniProt O00255) (assay: qHTS Assay for Inhibitors Targeting the Menin-MLL Interaction in MLL Related Leukemias: Competition With Texas Red Labeled MLL-derived Mutant Peptide). Settings: fluorescence polarization; series mostly up to 61.6 µM.
UniProt O00255, sequence (O00255 whole entry, looked up): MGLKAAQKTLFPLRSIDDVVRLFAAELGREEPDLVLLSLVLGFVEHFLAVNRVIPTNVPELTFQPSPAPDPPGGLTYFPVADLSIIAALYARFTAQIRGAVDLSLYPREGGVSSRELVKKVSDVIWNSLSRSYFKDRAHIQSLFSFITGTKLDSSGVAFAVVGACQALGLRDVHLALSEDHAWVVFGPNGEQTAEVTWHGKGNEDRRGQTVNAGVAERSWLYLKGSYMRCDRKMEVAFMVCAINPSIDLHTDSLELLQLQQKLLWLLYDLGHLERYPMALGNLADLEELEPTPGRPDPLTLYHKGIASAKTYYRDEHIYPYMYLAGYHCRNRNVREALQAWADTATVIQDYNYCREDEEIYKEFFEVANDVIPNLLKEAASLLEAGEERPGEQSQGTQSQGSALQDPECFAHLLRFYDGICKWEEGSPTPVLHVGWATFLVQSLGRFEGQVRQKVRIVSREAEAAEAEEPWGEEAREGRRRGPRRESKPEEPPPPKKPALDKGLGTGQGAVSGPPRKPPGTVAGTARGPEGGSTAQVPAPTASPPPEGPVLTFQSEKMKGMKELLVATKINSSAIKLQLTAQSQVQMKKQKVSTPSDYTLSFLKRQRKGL
With `O=C(Nc1cccc(Cl)c1)Nc1nnc(CC2=CCCCC2)s1` the Potency was inconclusive: 14.1 µM [quencher, side channel, partial curve]. In the case of `CN(C)c1ccc(/C=N/NC(=O)CCC(=O)NCc2ccccc2)cc1`, the Potency is reported as “inactive”. For `O=C(CSc1ccc(-c2ccccn2)nn1)NCc1ccc(F)cc1`, the Potency was “inactive”. In the case of `CC(NC(=O)Cn1nc(-c2ccccc2)c2ccccc2c1=O)c1ccccc1` (stereo not given), the Potency is reported as inconclusive: 39.8 µM [fluorescent, side channel, single point]. With `CCOC(=O)c1nc(NCc2ccccc2C)c2ccccc2n1` the Potency was inconclusive: 39.8 µM [fluorescent, side channel, single point]. `Cc1ccc([N+](=O)[O-])cc1NC1OC(CO)C(O)C1O` (stereo not given) was tested, and the Potency was “inactive”. For `OC[C@@H]1[C@@H](c2ccc(F)cc2)C(c2ccc(F)cc2)=NN1c1ccccc1`, the Potency was inconclusive: 20 µM [quencher, side channel, partial curve]. For `Cc1cc(C)n(C(=O)CCCCCCCCC(=O)n2nc(C)cc2C)n1`, the Potency was inconclusive: 39.8 µM [inhibitor, single point]. For `Cc1noc(C)c1-c1nccc(NCc2ccccc2)n1`, the Potency was “inactive”. `O=S(=O)(Nc1cccc(-c2cn3ccsc3n2)c1)c1ccc(F)cc1` was tested, and the Potency was “inactive”. For `Cc1c(C(=O)Nc2cccc(C(F)(F)F)c2)oc2ccc(S(=O)(=O)N3CCOCC3)cc12`, the Potency was “inactive”. For `COc1ccccc1CN(C)C(=O)C(c1ccccc1)c1ccccc1`, the Potency was inconclusive: 3.98 µM [fluorescent, side channel, partial curve]. In the case of `O=c1c2ccccc2nc2c3ccccc3c(NCc3cccnc3)nn12`, the Potency is reported as “inactive”. In the case of `O=C1NN(c2ccccc2)C(=O)/C1=C\c1ccc2c(c1)OCO2`, the Potency is reported as “inactive”. For `COc1ccccc1N1C(=O)c2cccc3cccc(c23)C1=O`, the Potency was inconclusive: 2.51 µM [inhibitor, full curve, poor fit]. With `NS(=O)(=O)c1cccc(NS(=O)(=O)c2ccc3ccccc3c2)c1` the Potency was inconclusive: 12.6 µM [quencher, side channel, partial curve]. For `O=C(Nc1ccc(Sc2ccc(Br)cc2)cc1)c1ccco1`, the Potency was inconclusive: 10 µM [quencher, single point]. With `FC(F)(F)c1cccc(N2CCN(CC3CC4C=CC3C4)CC2)c1` (stereo not given) the Potency was inconclusive: 20 µM [fluorescent, side channel, single point]. In the case of `COc1ccc(Nc2sc(C(=O)Nc3cccc(Cl)c3)c(N)c2C(=O)Nc2ccccc2OC)cc1`, the Potency is reported as inconclusive: 7.08 µM [quencher, side channel, partial curve]. For `NS(=O)(=O)c1ccc(Nc2nc(-c3ccc4ccccc4c3)cs2)cc1`, the Potency was inconclusive: 8.91 µM [quencher, side channel, partial curve]. In the case of `CCOC(=O)c1[nH]c2ccc(OC)cc2c1NC(=O)CN1CCC2(CC1)OCCO2`, the Potency is reported as “inactive”. In the case of `Cc1ccccc1CSc1nnnn1-c1ccc(C(N)=O)cc1`, the Potency is reported as inconclusive: 39.8 µM [fluorescent, side channel, single point]. `COc1cccc(/C=N/Nc2ncnc3scc(-c4ccccc4)c23)c1O` was tested, and the Potency was inconclusive: 15.8 µM [quencher, side channel, partial curve]. `O=C(Nc1ccc(N=Nc2ccccc2)cc1)c1ccccc1Cl` was tested, and the Potency was inconclusive: 17.8 µM [quencher, side channel, partial curve]. With `N/C(=N\NC(=O)c1cccs1)c1cc2ccccc2oc1=O` the Potency was “inactive”. In the case of `O=C(CSc1ncnc2ccccc12)NCC(=O)c1ccccc1`, the Potency is reported as inconclusive: 28.2 µM [fluorescent, side channel, single point]. For `O=C(Cn1nnc(-c2ccc(Cl)cc2)n1)NCC1CCCCC1`, the Potency was inconclusive: 39.8 µM [inhibitor, single point]. In the case of `CCC(=O)Nc1nc2ccc(NC(=O)c3cc(OC)c(OC)c(OC)c3)cc2s1`, the Potency is reported as inconclusive: 14.1 µM [quencher, side channel, partial curve]. `CCN(CC)CCNC(=O)c1cc(Nc2ccc(OC)c(OC)c2)nc2ccccc12` was tested, and the Potency was “inactive”. With `COc1ccc(-c2cc(-c3ccccc3O)[nH]n2)cc1` the Potency was inconclusive: 20 µM [quencher, side channel, partial curve]. In the case of `COc1ccc2c3c(c(=O)oc2c1OCC(=O)C(C)(C)C)CCCC3`, the Potency is reported as inconclusive: 17.8 µM [fluorescent, side channel, partial curve]. In the case of `Cc1ccc(C(=O)N(c2ccccn2)C(C)c2ccco2)cc1C` (stereo not given), the Potency is reported as inconclusive: 35.5 µM [fluorescent, side channel, single point]. In the case of `C=CC[n+]1c(-c2ccc(OCC)cc2)csc1NNC(=O)Nc1ccccc1`, the Potency is reported as inconclusive: 12.6 µM [fluorescent, side channel, partial curve]. In the case of `O=C(CNC(=O)OCc1ccccc1)Oc1cc2oc(=O)cc(-c3ccccc3)c2cc1Cl`, the Potency is reported as inconclusive: 31.6 µM [quencher, side channel, single point]. `O=C(c1ccccc1)N1N=C(c2ccccc2)CC1c1ccc2nccnc2c1` (stereo not given) was tested, and the Potency was inconclusive: 20 µM [inhibitor, partial curve]. For `CC(C)(C)Nc1scc(-c2ccccc2)[n+]1-c1ccccc1`, the Potency was inconclusive: 25.1 µM [inhibitor, partial curve]. For `O=C(NCc1ccc2c(c1)OCO2)Nc1ccc([N+](=O)[O-])cc1`, the Potency was inconclusive: 2.82 µM [quencher, side channel, full curve, poor fit]. In the case of `Cc1c(Br)c(C(=O)NCc2cc3cc(Cl)ccc3[nH]2)nn1C`, the Potency is reported as inconclusive: 20 µM [quencher, side channel, partial curve]. `Cc1cnc(CN2CCCC(C(=O)c3ccc4c5c(cccc35)CC4)C2)[nH]1` (stereo not given) was tested, and the Potency was inconclusive: 8.91 µM [fluorescent, side channel, full curve, poor fit]. In the case of `COc1ccc(-c2csc(N)n2)cc1F`, the Potency is reported as inconclusive: 39.8 µM [quencher, side channel, single point]. For `[O-]/C(=C(\C(=S)Nc1cccc2ccccc12)[n+]1ccccc1)c1ccc2c(c1)OCCO2`, the Potency was inconclusive: 22.4 µM [quencher, side channel, partial curve]. With `Cc1ccc(-c2ccc(CCC(=O)O)n2NC(=O)c2ccc([N+](=O)[O-])cc2)cc1` the Potency was inconclusive: 31.6 µM [quencher, side channel, single point]. In the case of `O=C(N/N=C\c1c(O)ccc2ccccc12)c1ccc(S(=O)(=O)N2CCCCC2)cc1`, the Potency is reported as inconclusive: 3.55 µM [quencher, side channel, full curve]. For `Cc1ccc(N2C(=O)CS/C2=C(\C(Cl)=C(Cl)Cl)[N+](=O)[O-])cc1`, the Potency was inconclusive: 8.91 µM [quencher, side channel, partial curve]. For `Cn1cnnc1SCC(=O)N1N=C2/C(=C/c3ccco3)CCCC2C1c1ccco1` (stereo not given), the Potency was inconclusive: 0.708 µM [fluorescent, side channel, full curve, poor fit]. For `O=C1CC(SC(=Nc2ccccc2)Nc2ccccc2)C(=O)N1c1cccc(Cl)c1` (stereo not given), the Potency was inconclusive: 39.8 µM [inhibitor, single point]. For `COc1ccc(OC)c(NS(=O)(=O)c2ccc(NC(=O)c3ccc(NS(C)(=O)=O)cc3)cc2)c1`, the Potency was inconclusive: 31.6 µM [quencher, side channel, partial curve]. `Cc1cc(Cl)cc(C)c1OCCCCCn1ccnc1` was tested, and the Potency was inconclusive: 20 µM [fluorescent, side channel, partial curve]. For `CN1CCN(c2ncnc3ccc(-c4ccccc4C(F)(F)F)cc23)CC1`, the Potency was inconclusive: 14.1 µM [inhibitor, partial curve]. For `CCOC(=O)CSc1nnc(NC(=O)CN2CCCCC2)s1`, the Potency was inconclusive: 1.41 µM [inhibitor, full curve, poor fit]. `O=C(CSc1nc2c(sc3ccccc32)c(=O)n1CCCN1CCCC1)NCc1ccco1` was tested, and the Potency was inconclusive: 25.1 µM [inhibitor, single point]. With `Cc1ccc(C)n1-c1ccc(N2CCOCC2)cc1` the Potency was inconclusive: 39.8 µM [inhibitor, single point]. `Cc1ccc(NC(=O)NC2=NN(c3ccccc3)C(=O)/C2=C2/CCCN2C)cc1` was tested, and the Potency was inconclusive: 31.6 µM [quencher, side channel, single point]. In the case of `CCN(CC)S(=O)(=O)c1cc(C(=O)Oc2cccc(-c3cnc4ccccc4n3)c2)ccc1OC`, the Potency is reported as inconclusive: 25.1 µM [inhibitor, single point]. In the case of `COc1cccc(C(=O)Nc2cc(NC(=O)c3cccs3)ccc2C)c1OC`, the Potency is reported as inconclusive: 31.6 µM [quencher, side channel, single point]. For `CC(C)c1ccc2[nH]c(O)c(N=NC(=O)c3cccc(S(=O)(=O)N4CCCCC4)c3)c2c1`, the Potency was inconclusive: 12.6 µM [quencher, side channel, partial curve]. For `COc1ccc(S(=O)(=O)NC(C)C(=O)NCc2ccccn2)cc1OC` (stereo not given), the Potency was inconclusive: 5.62 µM [quencher, side channel, single point]. With `CCCc1ccc(OCC(=O)Nc2cc(S(=O)(=O)CC)ccc2O)cc1` the Potency was inconclusive: 39.8 µM [quencher, side channel, single point]. `COc1cc(/C=N/NC(=O)/C(=C/c2ccccc2)CCO)ccc1O` was tested, and the Potency was “inactive”. With `COc1ccccc1CNc1ccnc(-c2cccc(NS(C)(=O)=O)c2)n1` the Potency was inconclusive: 12.6 µM [quencher, side channel, partial curve].
